# From PubChem BioAssay (Tox21)
# “And” between values parts separate entries of the source, which are not always exact repeats. Equal entries are not always repeated. Inconclusive means that the source gave no clear call. Such entries were picked first, then a sample of the others. Potencies of inconclusive entries are doubtful fits and often do not repeat. A structure can be active in one record and inactive in another. The source made the active and inactive calls. The call rests on the fitted dose curve; in most records, active means well fitted curve in the direction sought with a large enough effect in the repeat runs; inconclusive means weak or mixed curves; inactive means no such curve, though single readings can be large; an effect the other way counts as inactive or inconclusive.
# Tests used:
# [1] = qHTS RealTime-Glo MT Cell Viability Assay in HEK293 cells - 32 hour (AID 1224868); further: nearly all actives have a fitted effect of over 50% in size
# How it was run: (§1)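 Viability tracked continuously by luminescence as live cells reduce a prosubstrate for NanoLuc; HEK293 cells preincubated 5 h, compound-treated at 37 C, and read at 0, 8, 16, 24, 32 and 40 h.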
# [2] = qHTS RealTime-Glo MT Cell Viability Assay in HEK293 cells - 40 hour (AID 1224874); conditions: RealTime-Glo luminescence; max response: stronger effect = lower value; further: nearly all actives have a fitted effect of over 50% in size; on max response: on the % scale 0 is the no-effect control and ±100 the full control effect
# How it was run: (§2)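 Cells were seeded together with NanoLuc luciferase and a prosubstrate that viable cells reduce to a luciferase substrate. After a 5 h incubation at 37 C/5% CO2, compounds were added and luminescence was measured repeatedly during 40 h of treatment.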
# [3] = A CellTox Green Cytotoxicity Assay to monitor cytotoxicity in HEK293 cells - 24 hour (AID 1224875); further: nearly all actives have a fitted effect of over 45% in size
# How it was run: (§3)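 Nonlytic real-time cytotoxicity: HEK293 + CellTox Green reagent plated, 5 h preincubation, pintool compound addition (23 nL in DMSO), 37 C for 40 h, fluorescence measured at successive time points.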
# [4] = A CellTox Green Cytotoxicity Assay to monitor cytotoxicity in HepG2 cells - 24 hour (AID 1224878); further: nearly all actives have a fitted effect of over 45% in size; on Cytotoxicity: on the % scale 0 is the no-effect control and ±100 the full control effect
# How it was run: (§4)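 Read-out is fluorescence of a cyanine dye excluded from live cells that stains DNA of dead HepG2 cells, with signal proportional to cytotoxicity. Plates were read at 0, 8, 16, 24, 32 and 40 h after compound addition.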
# [5] = A CellTox Green Cytotoxicity Assay to monitor cytotoxicity in HepG2 cells - 40 hour (AID 1224879); further: nearly all actives have a fitted effect of over 40% in size
# How it was run: as §4
# [6] = qHTS RealTime-Glo MT Cell Viability Assay in HepG2 cells - 40 hour (AID 1224870); further: nearly all actives have a fitted effect of over 50% in size
# How it was run: (§5)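 HepG2 cells (600/well) mixed with RealTime-Glo MT reagent, settled 5 h at 37 C/5% CO2 before compound addition. Nonlytic NanoLuc luminescence from viable-cell prosubstrate reduction read repeatedly during 40 h treatment at 37 C.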
# [7] = A CellTox Green Cytotoxicity Assay to monitor cytotoxicity in HepG2 cells - 0 hour (AID 1224882); further: nearly all actives have a fitted effect of over 35% in size; on Cytotoxicity: on the % scale 0 is the no-effect control and ±100 the full control effect
# How it was run: as §4
# [8] = A CellTox Green Cytotoxicity Assay to monitor cytotoxicity in HEK293 cells - 0 hour (AID 1224869); further: nearly all actives have a fitted effect of over 50% in size
# How it was run: as §3
# [9] = qHTS RealTime-Glo MT Cell Viability Assay in HEK293 cells - 0 hour (AID 1224880); further: nearly all actives have a fitted effect of over 45% in size
# How it was run: as §2
# [10] = A CellTox Green Cytotoxicity Assay to monitor cytotoxicity in HepG2 cells - 16 hour (AID 1224876); further: nearly all actives have a fitted effect of over 45% in size
# How it was run: as §4
# [11] = A CellTox Green Cytotoxicity Assay to monitor cytotoxicity in HEK293 cells - 40 hour (AID 1224871); further: nearly all actives have a fitted effect of over 45% in size
# How it was run: as §3
# [12] = qHTS RealTime-Glo MT Cell Viability Assay in HepG2 cells - 8 hour (AID 1224873); further: nearly all actives have a fitted effect of over 55% in size
# How it was run: as §5
# [13] = A CellTox Green Cytotoxicity Assay to monitor cytotoxicity in HEK293 cells - 32 hour (AID 1224881); further: nearly all actives have a fitted effect of over 40% in size
# How it was run: as §3
# [14] = qHTS RealTime-Glo MT Cell Viability Assay in HEK293 cells - 16 hour (AID 1224872); further: nearly all actives have a fitted effect of over 50% in size
# How it was run: as §1
# Potency means the concentration at half of the fitted maximal effect; tags describe the fitted curve by direction and shape.
compound,measurement,setting,value
Nc1cc(Cl)c(N)c(Cl)c1,Potency,[1],"inconclusive: 61.1 µM [cytotoxic, partial curve, poor fit]"
same,Potency,[2],"inconclusive: 54.5 µM [cytotoxic, single point]"
same,Potency,[3],"inconclusive: 21.7 µM [activator, partial curve, poor fit]"
same,Potency,[4],"inconclusive: 54.5 µM [activator, single point]"
same,Potency,[5],"inconclusive: 54.5 µM [activator, single point]"
CCCCCN(CCCOC)C(=O)C(CCC(=O)O)NC(=O)c1ccc(Cl)c(Cl)c1 (stereo not given),Potency,[6],inactive
same,Potency,[4],"inconclusive: 10.7 µM [activator, single point]"
same,Potency,[5],"inconclusive: 10.7 µM [activator, single point]"
same,Potency,[7],"inconclusive: 10.7 µM [activator, single point]"
CC(=O)OC(C)C[N+](C)(C)C (stereo not given),Potency,[8],"inconclusive: 0.338 µM [activator, partial curve]"
same,Potency,[3],inactive
same,Potency,[5],"inconclusive: 0.0535 µM [activator, partial curve, poor fit]"
same,Potency,[9],inactive
CC(C)c1c(C(=O)Nc2ccccc2)c(-c2ccccc2)c(-c2ccc(F)cc2)n1CC[C@@H](O)C[C@@H](O)CC(=O)O,Potency,[6],"inconclusive: 19 µM [falling, partial curve]"
same,Potency,[2],"inconclusive: 16.7 µM [cytotoxic, partial curve] and inconclusive: 25.7 µM [cytotoxic, partial curve]"
same,Potency,[10],"inconclusive: 57.6 µM [activator, single point]"
same,Potency,[9],inactive
CCOC(=O)c1ccc(C2CCC(NC[C@H](O)COc3ccc(O)c(NS(C)(=O)=O)c3)CC2)cc1 (stereo not given in full),Potency,[6],active: 50.7 µM
same,Potency,[11],"inconclusive: 50.7 µM [activator, single point]"
same,Potency,[12],"inconclusive: 45.2 µM [falling, partial curve, poor fit]"
same,Potency,[3],"inconclusive: 50.7 µM [activator, single point]"
same,Potency,[10],"inconclusive: 50.7 µM [activator, single point]"
same,Potency,[13],"inconclusive: 45.2 µM [activator, single point]"
C=C(C)c1cccc(C(=C)C)c1,Potency,[6],inactive
same,max response,[2],inactive: -0.359%
CC(=O)SC[C@@H](Cc1ccccc1)C(=O)NCC(=O)OCc1ccccc1,Potency,[11],inactive
CC(C)(C)C(=O)O,Potency,[11],inactive
COCC(=O)O,Potency,[6],inactive
same,Potency,[9],inactive
COS(=O)(=O)C(F)(F)F,Potency,[6],inactive
CCCCOCCO,Potency,[6],inactive
Cc1onc(-c2ccccc2Cl)c1C(=O)N[C@@H]1C(=O)N2[C@@H]1SC(C)(C)[C@@H]2C(=O)O,Potency,[11],inactive
COc1cc(N)c(Cl)cc1C(=O)NC1CCN(Cc2ccccc2)CC1,Potency,[11],inactive
same,Potency,[14],active: 19 µM
NS(=O)(=O)c1cc(C(=O)O)c(NCc2ccco2)cc1Cl,Potency,[8],"inconclusive: 49.2 µM [activator, partial curve]"
same,Potency,[11],"inconclusive: 39.1 µM [activator, partial curve, poor fit]"
same,Potency,[3],"inconclusive: 39.1 µM [activator, partial curve, poor fit]"
same,Potency,[10],active: 22 µM
same,Potency,[13],"inconclusive: 43.8 µM [activator, partial curve, poor fit]"
NC/C=C/C(=O)O,Potency,[6],inactive
same,Potency,[5],inactive
same,Potency,[13],inactive
NCCCCCCN,Potency,[6],inactive
Cc1ccc(OC(=O)CC(C)C)cc1,Potency,[11],"inconclusive: 38.9 µM [activator, partial curve, poor fit]"
CCN(CC)CCOC(=O)C(c1ccccc1)c1ccccc1,Potency,[6],inactive
same,Potency,[14],inactive
same,max response,[2],inactive: 0.0208%
c1ccc(CC2=NCCN2)cc1,Potency,[11],inactive
O=C(O)COCC(=O)O,Potency,[11],"inconclusive: 2.2 µM [activator, single point]"
O=C1CCCCCCCCCCCCCCCO1,Potency,[8],active: 24.5 µM
same,Potency,[14],inactive
same,Potency,[3],active: 24.5 µM
same,Potency,[5],active: 43.6 µM
same,Potency,[13],active: 24.5 µM
OC[C@@H](O)[C@@H](O[C@@H]1O[C@H](CO)[C@H](O)[C@H](O)[C@H]1O)[C@H](O)[C@@H](O)CO,Potency,[6],"inconclusive: 54.2 µM [falling, single point]"
same,Potency,[4],inactive
CCCCCCCCCCCC(=O)OCC(O)CO (stereo not given),Potency,[6],inactive
same,Potency,[5],inactive
CCCC(=O)OCCc1ccccc1,Potency,[8],active: 43.6 µM
same,Potency,[5],active: 49 µM
same,Potency,[7],active: 38.9 µM
NC(=O)c1ccccc1C(N)=O,Potency,[8],active: 49.2 µM
same,Potency,[14],"inconclusive: 39.1 µM [cytotoxic, partial curve]"
same,Potency,[10],active: 55.2 µM
same,Potency,[7],active: 49.2 µM
N=C(N)N,Potency,[8],"inconclusive: 26.8 µM [activator, partial curve, poor fit]"
same,Potency,[6],inactive
Nc1cc([N+](=O)[O-])ccc1C(=O)O,Potency,[8],"inconclusive: 22.3 µM [activator, partial curve, poor fit]"
same,Potency,[11],"inconclusive: 22.3 µM [activator, single point]"
same,Potency,[3],"inconclusive: 22.3 µM [activator, single point]"
same,Potency,[13],"inconclusive: 25 µM [activator, single point]"
C1=CCC2CC=CC2C1 (stereo not given),Potency,[11],inactive
C[C@@H](O)[C@H]1C(=O)N2C(C(=O)O)=C([C@H]3CCCO3)S[C@H]12,Potency,[6],inactive
Cn1c([N+](=O)[O-])cnc1COC(N)=O,Potency,[8],"inconclusive: 5.35 µM [activator, partial curve]"
same,Potency,[11],"inconclusive: 4.25 µM [activator, single point]"
FC(F)(F)C(F)(F)C(F)(F)C(F)(F)CCI,Potency,[6],inactive
same,Potency,[11],inactive
same,Potency,[14],inactive
CCCCCC/C=C/CCCCCCCC(=O)O,Potency,[6],inactive
O=C(c1ccccc1)C1CCC1,Potency,[8],active: 38.9 µM
same,Potency,[11],active: 24.5 µM
same,Potency,[14],inactive
CCCCCCOC(=O)C(C)CC (stereo not given),Potency,[11],inactive
CC(=O)c1ccc2c(c1)[C@H](NC(=O)c1ccc(F)cc1)[C@@H](O)C(C)(C)O2,Potency,[11],inactive
O=C(O)C(=O)Cc1c[nH]c2ccccc12,Potency,[6],inactive
same,Potency,[14],"inconclusive: 2.19 µM [rising, full curve]"
CCc1ccc(C)cc1,Potency,[11],inactive
CCOC(=O)Oc1ccc(CCNC(=O)[C@H](CCSC)NC(C)=O)cc1OC(=O)OCC,Potency,[6],inactive
same,max response,[2],inactive: 14.4%
same,Potency,[3],inactive
CC(C)Cc1ccc(CC(=O)O)cc1,Potency,[8],"inconclusive: 9.52 µM [activator, partial curve]"
same,Potency,[10],active: 19 µM
same,Potency,[4],active: 19 µM
same,Potency,[5],active: 21.3 µM
same,Potency,[7],active: 19 µM
CC1(C)O[C@@H]2C[C@H]3[C@@H]4C[C@H](F)C5=CC(=O)CC[C@]5(C)[C@H]4[C@@H](O)C[C@]3(C)[C@]2(C(=O)CO)O1,Potency,[8],"inconclusive: 43.6 µM [activator, partial curve]"
same,Potency,[11],"inconclusive: 38.9 µM [activator, partial curve]"
same,max response,[2],inactive: -22.4% and inactive: 2.26%
same,Potency,[3],"inconclusive: 34.7 µM [activator, partial curve]"
same,Potency,[10],active: 49 µM
same,Potency,[9],active: 17.4 µM and active: 10.7 µM
same,Potency,[13],"inconclusive: 34.7 µM [activator, partial curve, poor fit]"
same,Potency,[7],active: 38.9 µM and inactive
O=C1C(=O)c2ccccc2C(O)=C1C1CCC(c2ccc(Cl)cc2)CC1 (stereo not given),Potency,[9],active: 7.56 µM
CN(C)CCCOC1(Cc2ccccc2)CCCCCC1,Potency,[9],"inconclusive: 26.8 µM [rising, partial curve, poor fit]"
